Hit rate of the full screen: of about 310,000 compounds, about 14,000 (4.5%) showed an effect of 50% or more. Effects have a minus sign here. Some of the results follow.
biological target: human ether-à-go-go-related gene (hERG) potassium channel (human, UniProt Q12809); assay: primary screen, population patch clamp on CHO cells stably expressing hERG
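Note: peak tail current of the secondary pulse compared with the same well before compound.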

human ether-à-go-go-related gene (hERG) potassium channel, sequence (Q12809 whole entry, looked up): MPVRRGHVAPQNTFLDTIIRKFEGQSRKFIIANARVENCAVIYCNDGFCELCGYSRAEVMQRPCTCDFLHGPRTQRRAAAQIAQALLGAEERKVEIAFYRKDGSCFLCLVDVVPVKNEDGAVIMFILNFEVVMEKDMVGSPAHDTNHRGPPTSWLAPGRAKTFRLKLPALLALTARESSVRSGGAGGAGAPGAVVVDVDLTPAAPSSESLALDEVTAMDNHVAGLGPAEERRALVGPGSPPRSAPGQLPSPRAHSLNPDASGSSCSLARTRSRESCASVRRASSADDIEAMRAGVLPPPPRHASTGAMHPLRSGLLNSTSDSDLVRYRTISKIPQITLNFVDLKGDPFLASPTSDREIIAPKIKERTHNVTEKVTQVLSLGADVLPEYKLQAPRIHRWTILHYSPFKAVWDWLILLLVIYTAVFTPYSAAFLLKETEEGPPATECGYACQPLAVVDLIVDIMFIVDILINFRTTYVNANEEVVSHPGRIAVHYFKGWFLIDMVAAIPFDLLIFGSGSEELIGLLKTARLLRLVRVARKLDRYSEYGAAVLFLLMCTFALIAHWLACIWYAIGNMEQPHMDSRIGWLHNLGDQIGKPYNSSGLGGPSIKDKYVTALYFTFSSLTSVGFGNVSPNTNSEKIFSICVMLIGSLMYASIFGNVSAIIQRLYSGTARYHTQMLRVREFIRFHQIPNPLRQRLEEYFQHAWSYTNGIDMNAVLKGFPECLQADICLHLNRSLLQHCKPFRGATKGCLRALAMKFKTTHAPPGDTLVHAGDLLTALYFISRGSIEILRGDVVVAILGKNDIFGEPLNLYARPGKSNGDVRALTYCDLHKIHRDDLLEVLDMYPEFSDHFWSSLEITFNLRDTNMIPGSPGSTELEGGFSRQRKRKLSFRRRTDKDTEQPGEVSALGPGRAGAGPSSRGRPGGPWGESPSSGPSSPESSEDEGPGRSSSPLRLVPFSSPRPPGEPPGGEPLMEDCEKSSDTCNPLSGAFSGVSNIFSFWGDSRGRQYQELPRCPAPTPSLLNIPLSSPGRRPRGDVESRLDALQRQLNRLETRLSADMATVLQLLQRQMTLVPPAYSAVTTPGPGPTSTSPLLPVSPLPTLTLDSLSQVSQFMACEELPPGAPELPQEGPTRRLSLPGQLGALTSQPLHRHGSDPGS

In order of rising “hERG current change (%, negative = inhibition) at 10uM” value:
1. Clc1ccc2[nH]c3c(NCCN4CCOCC4)ncnc3c2c1  -61.8%
2. Cc1cccc(OC2CCN(Cc3c(C(=O)N4CCCC4)nc4ccccn34)CC2)c1  -59.4%
3. CC(=O)N1CCN(CC(=O)Nc2c(Cl)cc(Cl)cc2Cl)CC1  -54.2%
4. Cc1ccc(-n2nc3c(=O)n(C(C)C(=O)NCCC4=CCCCC4)nc(C)c3c2C)cc1 (centres unmarked)  -51.4%
5. COc1ccc(S(=O)(=O)N2CCOCC2)cc1NC(=O)COc1ccccc1  -40.5%
6. CCOC(=O)COn1c(=O)c(-c2ccco2)[n+]([O-])c2ccccc21  -29.3%
7. CC(=O)n1cc([C@H]2C=C(C(=O)Nc3ccccc3)O[C@@H](OCCCCO)C2)c2ccccc21  -25%
8. O=C(Cc1ccc(Cl)c(Cl)c1)NCC1(N2CCOCC2)CCCCC1  -24.9%
9. Cc1ccc(CN2CCN(Cc3cn(C(C)C)c4ccccc34)CC2CCO)o1 (centres unmarked)  -21.8%
10. COc1ccc(CNC(=O)C(C)c2ccc([N+](=O)[O-])cc2)cc1 (centres unmarked)  -21.2%
11. O=C(NNC(=O)c1cccs1)c1ccc(S(=O)(=O)N2CCCCC2)cc1  -17.4%
12. O=C(NCc1cccs1)c1cc(-c2cccc(Cl)c2)on1  -16.1%
13. C[C@H](NC(=O)c1nc[nH]c1C(=O)NCc1ccc(CNC(=O)OC(C)(C)C)cc1)C(=O)OC(C)(C)C  -15.7%
14. COc1cc(C(=O)Nc2ccc3c(c2)OCO3)ccc1-n1cnnn1  -15.6%
15. COc1ccc(N(CC(=O)NCc2ccccc2OC)S(=O)(=O)c2ccccc2)cc1  -14.2%
16. CC(C)NS(=O)(=O)c1ccc(NC(=O)CCc2ccccc2)cc1  -13.6%
17. CN1CCCCCC1C(=O)N1CCC(N2CCC(C(=O)N3CCOCC3)CC2)CC1 (centres unmarked)  -13.4%
18. COC(=O)COc1ccc(C)cc1-n1nc2ccccc2n1  -13.2%
19. COc1ccc(C)cc1C1=Nc2ccccc2C1(C)C  -11.7%
20. COc1ccc(CC(=O)NCc2nnc(SCCOc3ccccc3)n2C)cc1  -11.7%
21. CC(C)c1ccc(C(C(=O)NC2CCCC2)N(C(=O)c2csnn2)C2CC2)cc1 (centres unmarked)  -9.14%
22. Cc1c(NC(=O)c2cccs2)cccc1C(=O)O  -8.42%
23. COc1ccc(-n2c(SCC(=O)Nc3ccccc3OC)nc(O)c(Cc3ccccc3)c2=O)cc1  -8.35%
24. COc1ccccc1OCC(=O)Nc1c2c(nn1-c1ccccc1)CS(=O)(=O)C2  -8.22%
25. Cc1cc(CNC(=O)COc2ccc(F)cc2Cl)cc(C)c1O  -8.21%
26. Cc1ccccc1NC(=O)NCCc1nc2ccccc2[nH]1  -7.81%
27. Cn1c(SCC(=O)CC(=O)Nc2ccccc2)nnc1-c1ccc(O)cc1  -6.85%
28. CCCCNC(=O)OCCSCCS(=O)(=O)c1ccc(Cl)cc1  -6.17%
29. C#CCSc1nnc(-c2cccc3ccccc23)o1  -5.95%
30. O=C(CN1C(=O)/C(=C\c2ccccc2Cl)Sc2ccccc21)NCCCN1CCOCC1  -5.29%
31. O=[N+]([O-])c1cccc(S(=O)(=O)[N-]c2nc3ccccc3nc2-n2cc[n+](Cc3ccccc3)c2)c1  -5.11%
32. COCCCNc1nc(=S)[nH]c2cc(OC)c(OC)cc12  -4.86%
33. O=[N+]([O-])c1ccccc1-c1nc(-c2ccc(Br)o2)no1  -2.7%
34. Cc1ccc(S(=O)(=O)NCCC(=O)NC2CCC(C)CC2)cc1 (centres unmarked)  -2.35%
35. CCOCCn1c(C(C)C)nc2ccccc21  -1.12%
36. COc1ccc(/C=C/C(=O)c2ccccc2)c(OC)c1  -0.927%
37. COc1cccc(C(=O)NCC2CCCN(C(=O)c3ccc(C=O)cc3)C2)c1OC (centres unmarked)  0.357%
38. COC(=O)C1=C(c2ccc(C(C)=O)cc2)C[C@@H]2CC[C@H]1N2C(=O)N1CCCC1  0.9%
39. CCn1nc(NS(=O)(=O)c2ccc([N+](=O)[O-])cc2)c2cc3ccc(C)cc3nc21  2.02%
40. COc1ccc(Cn2cccc(NC(=O)Nc3cccc(OC)c3)c2=O)cc1  2.33%
41. Cc1ccc(C)n1-c1ccc(N2CCOCC2)c([N+](=O)[O-])c1  2.53%
42. CCC1(CC)NC(=O)N(CC(=O)OCC(=O)NC(=O)c2ccccc2OC)C1=O  2.84%
43. COc1cccc(/C=C2\SC(=S)N(c3cccnc3)C2=O)c1OC  3.2%
44. OCCCNc1ncnc2sc(-c3ccccc3)cc12  3.23%
45. CCCNC1CCS(=O)(=O)C1.Cl (centres unmarked)  4.19%
46. O=C(CSc1nnc(-c2ccc(F)cc2)o1)NC1CCCCC1  4.29%
47. N#Cc1ccccc1OCC(=O)Nc1cccc(S(=O)(=O)N2CCCC2)c1  5.17%
48. Cc1ccc(-n2c(SCC(=O)N3CCCC3)nc3c(c2=O)SCC3)cc1  5.3%
49. CN(C)C(CNC(=O)c1cccc(C#N)c1)c1ccco1 (centres unmarked)  5.8%
50. O=C1CNC(=S)N1CCc1ccc(Cl)cc1  5.96%
51. COc1ccc(CCCC(=O)N/N=C/c2ccccc2OC)cc1  6.06%
52. CCOC(=O)c1cnc2c(C(=O)OCC)cnn2c1N  6.31%
53. COc1ccc(CC(=O)Oc2ccccc2C)cc1  6.75%
54. CCOc1ccc(NC(=S)NCC(c2cccnc2)N2CCOCC2)cc1 (centres unmarked)  7.27%
55. C/C(CC(=O)Nc1ccc(Cl)cc1)=N\NC(=O)C(=O)NCCO  7.49%
56. O=C(CSc1ccc2ccccc2c1)Nc1ncccn1  7.7%
57. Cc1ccc(C)c(NC(=O)CN2C(=O)CC(C)S(=O)(=O)c3ccccc32)c1 (centres unmarked)  8.3%
58. CCc1nnc(NC(=O)C2CCN(S(=O)(=O)c3ccc(C)cc3)CC2)s1  8.48%
59. COc1ccc(OC)c(NC(=O)CNC(=O)Cn2ccc3ccccc3c2=O)c1  8.72%
60. COc1ccc(OCC(=O)NCc2cccnc2)cc1  8.79%
61. O=C(COC(=O)Cc1ccc(Br)cc1)Nc1ccc(N2CCOCC2)cc1  8.94%
62. COC(CNc1ncnc2c1cnn2C)OC  9.17%
63. O=C(Nc1ccccc1N1CCN(C(=O)c2ccccc2)CC1)c1cc2ccccc2o1  9.86%
64. COc1ccc(NC(=O)NC2(C(=O)N3CCN(C)CC3)CCCCC2)cc1  9.88%
65. O=C(Nc1cc(-c2nc3ncccc3o2)ccc1Cl)c1ccc2c(c1)OCO2  10.2%
66. CC1CCCC(NC(=O)COC(=O)CCC2CCCC2)C1C (centres unmarked)  10.3%
67. O=C(O)c1ccc(S(=O)(=O)NC2CC2)cc1  10.6%
68. CC(=O)N1N=C(c2ccc(C)c([N+](=O)[O-])c2)OC1(C)C  11.9%
69. Cc1ccc(C(=O)ONc2ccc(N=NC(=O)c3ccccc3O)cc2)cc1  12.2%
70. Cc1nc2ccccc2n1CC(O)c1ccccc1 (centres unmarked)  12.5%
71. CC(C)c1ccccc1NC(=O)C1CC(=O)N(C2CCCC2)C1 (centres unmarked)  12.5%
72. COC(=O)/C(=N/Nc1ccccc1C)Sc1nnc(C(O)c2ccccc2)n1-c1ccccc1 (centres unmarked)  13.3%
73. COc1cc(OC)cc(C(=O)Nc2ccc(NC(=O)c3ccco3)c(Cl)c2)c1  13.6%
74. CC(=O)N1CCN(Cc2nc3cc(NC(=O)c4cccs4)ccc3n2C)CC1  13.8%
75. CCN(CC)C(=O)c1sc2nc(-c3cccs3)cc(-c3ccc(Cl)cc3)c2c1N  14.3%
76. Cn1c2c(c(=O)n(C)c1=O)C(c1ccc(F)cc1)C(C#N)=C(N)O2 (centres unmarked)  14.7%
77. CCC(=O)c1ccc(OC(=O)/C=C/c2cc(OC)c(OC)c(OC)c2)cc1  15.7%
78. CCN(CC)CCNC(=O)c1ccccn1.O=C([O-])/C=C\C(=O)[O-]  16%
79. Cc1cc(C)nc(NNC(=O)c2ccccc2O)n1  16.1%
80. COc1ccc(-c2c(C(F)(F)F)nn(C)c2NC(C)=O)cc1  17.7%
81. O=[N+]([O-])c1c(NCCCO)cc(Sc2ccc(Cl)cc2)c2nonc12  17.8%
82. Cc1coc2c1C(=O)C(=O)c1c-2ccc2c1CCCC2(C)C  19.1%
83. CCN1CCN(CCCNC(=O)CNC(=O)c2nn(-c3ccc(OC)cc3)c(=O)c3ccccc23)CC1  21.1%
84. O=C(CCl)Nc1ccc(S(=O)(=O)Nc2nccs2)cc1  21.6%
85. COc1ccc(C(=O)Oc2cc(N)n(S(=O)(=O)c3ccc(C)cc3)n2)cc1  24.3%
86. O=c1c2c([nH]n1-c1ccccc1)CCSC2  25.9%
87. O=C(Cn1nnc(-c2cccs2)n1)NCc1ccco1  26.6%
88. Cc1ccc(C(=O)O)cc1NC(=S)NC(=O)c1ccc(-c2ccccc2)cc1  28.1%
89. COC(=O)C1=C(C)Nc2c(c(=O)n(C)c(=O)n2C)C1c1ccncc1 (centres unmarked)  31.4%
